According to patent US20250114430A1, “MODIFIED PEPTIDOMIMETICS AND METHODS OF USE” (The University of North Carolina at Chapel Hill, priority 2021, published 2025):
No end group written: not given here.

Excerpt: ELD100 contained 16 residues. A series of peptides were generated including N-terminal, C-terminal and mid-peptide deletions to fully-optimize the peptide's size. […] Using this approach, a library was generated to fully optimize ELD100. […] The amino acid sequence modifications included alanine scanning, conservative mutations, shorter sequences and N- and C-terminus modifications (D-ala and Ser additions).

DITLVHDIVNMLIHGL [ELD100, DITLVHDIVNMLIHGL]
cleavage in CF patient sputum: cleaved after valines by neutrophil elastase
